From PubChem BioAssay AID651820 (National Center for Advancing Translational Sciences (NCATS), 2012)
Where “and” joins values, the source holds several entries; their conditions need not be identical. Equal entries are not always repeated. Screen size: about 340,000 compounds; about 12,000 (3.5%) were called active. Inconclusive means that the source gave no clear call. Such entries were picked first, then a sample of the others. The call rests on the fitted dose curve; in most records, active means well fitted inhibition curve with a large enough effect; inconclusive means small, poorly fitted or top-dose-only effect, or another doubt; inactive means no such curve, though single readings can be large or run the other way. A potency beside an inconclusive call is a rough fit, not a confirmed value.

assay: qHTS Assay for Inhibitors of Hepatitis C Virus (HCV); settings: Huh7.5.1 HCVcc-Cre (HCVcc is cell-culture hepatitis C virus) infection, luciferase reporter, 44 h; activity change, negative = inhibition: at 41.8 µM (top of the series) unless noted
Summary of the method: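 Whole-lifecycle infectious HCVcc-Cre system; cells 1,000/well, compound then virus (~0.5 moi) added 4 h after plating, 44 h culture. Luciferase read 15 sec following 15 min substrate incubation, room temp.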
On the % scale 0 is the no-effect control and ±100 the full control effect; potency means the concentration at half of the fitted maximal effect; tags describe the fitted curve by direction and shape.

SMILES	activity change, negative = inhibition	Potency
Cc1ccc(S(=O)(=O)N2[C@@H](c3ccc(Br)cc3)C(C(=O)O)=CC[C@H]2c2cccs2)cc1	inactive: 11.6%	–
O=C(Nc1ccccc1C(=O)N1CCCCC1)c1cccc(S(=O)(=O)N2CCOCC2)c1	inactive: 22.7%	–
CC(C)(C)c1cc(NCc2ccccn2)n2ncc(-c3ccccc3)c2n1	–	active: 12.6 µM
CC(=O)Oc1ccc(NC(=O)C2CCCCC2)c(C(=O)O)c1	inactive: 8.42%	–
CCCC(=O)Nc1nc(-c2ccc(OC)cc2)cs1	–	inconclusive: 10 µM [inhibitor, partial curve]
COC(=O)c1ccc(C)c(NS(=O)(=O)c2ccc(OC)cc2)c1	inactive: -21%	–
Cc1nc(C)c(-c2ccc(SCC(=O)Nc3cccc(F)c3)nn2)s1	–	active: 14.1 µM
Cc1ccccc1OCC(O)Cn1c(SC(C)C)nc2c1c(=O)[nH]c(=O)n2C (configuration not stated)	inactive: -26%	–
COc1ccc(S(=O)(=O)Nc2cccc3c2O[C@H](CN(C)CC2CCCCC2)[C@@H](C)CN([C@H](C)CO)C3=O)cc1	inactive: 0.25%	–
COc1ccc(C(C)=O)cc1CSc1nnnn1-c1ccc(O)cc1	inactive: -25.2%	–
COc1ccc(C2CC(c3ccccc3C(F)(F)F)=NN2c2ccc(S(N)(=O)=O)cc2)cc1 (configuration not stated)	–	inconclusive: 7.94 µM [inhibitor, partial curve]
COc1ccccc1C(=O)Nc1cccc(SC)c1	inactive: 1.84%	–
C=C(C)COc1ccc2c(CC)cc(=O)oc2c1	–	inconclusive: 11.2 µM [inhibitor, single point]
O=C(NCCCCNC(=O)c1ccc(Br)s1)c1ccc(Br)s1	–	inconclusive: 0.562 µM [inhibitor, partial curve, poor fit]
O=C(NC1CCc2ccccc21)c1cc(COc2ccc(F)cc2F)on1 (configuration not stated)	–	inconclusive: 11.2 µM [inhibitor, partial curve]
Cc1ccc(C)c(N2CCN(C(=O)Cc3ccc(-n4c(=O)[nH]c5ccsc5c4=O)cc3)CC2)c1	inactive: 4.04%	–
Cc1ccc(C(=O)C(C)OC(=O)Cc2n[nH]c(=O)c3ccccc23)cc1 (configuration not stated)	–	inconclusive: 10 µM [inhibitor, partial curve]
C/C(=C\C(=O)c1ccccc1)Nc1ccc2c(c1)OCO2	–	active: 3.16 µM
Cc1ccc(OCC(=O)Nc2cc(S(=O)(=O)N3CCOCC3)ccc2N2CCCC2)cc1	–	inconclusive: 7.08 µM [inhibitor, partial curve]
O=C(O/N=C1/CCCc2occc21)c1ccc(Cl)cc1Cl	inactive: 5.6%	–
N#Cc1nc(COc2ccc(Cl)cc2)oc1N1CCN(Cc2ccccc2)CC1	–	inconclusive: 10 µM [inhibitor, single point]
Cc1ccc(OCC(=O)NCC(=O)n2nc(C)cc2C)cc1	–	inconclusive: 0.501 µM [inhibitor, partial curve, poor fit]
Cn1c(N)c(Sc2ccc(F)cc2)c(=O)n(C)c1=O	inactive: 13.1%	–
COc1cc2c(C#N)c(N3CCN(c4ccccc4OC)CC3)nc(N)c2c(N)n1	–	inconclusive: 11.2 µM [inhibitor, single point] and inconclusive: 25.1 µM [inhibitor, single point]

SMILES	activity change, negative = inhibition	Potency
CCSc1ccc(C(=O)Nc2ccc(Br)cn2)cc1[N+](=O)[O-]	–	inconclusive: 3.55 µM [inhibitor, single point]
CCN(C(=O)COC(=O)c1c(C)nn(-c2ccccc2)c1C)C1CCS(=O)(=O)C1 (configuration not stated)	inactive: -4.93%	–
CC1CN=C(N(C(=S)Nc2ccccc2)c2cccc(C(F)(F)F)c2)S1 (configuration not stated)	inactive: 9.96%	–
COc1ccc(CCNC(=O)c2ccc(CS(=O)Cc3ccc(Cl)cc3)o2)cc1OC (configuration not stated)	–	inconclusive: 12.6 µM [inhibitor, partial curve]
Cc1ccc(S(=O)(=O)N2[C@@H](c3ccc(Cl)cc3)C(C(=O)O)=CC[C@H]2c2ccc3c(c2)OCO3)cc1	inactive: 18.1%	–
COc1ccc(Nc2nc(-c3cccc([N+](=O)[O-])c3)nc3ccccc23)c(OC)c1	inactive: -11.3%	–
O=C(Nc1ccc2ccccc2c1)c1cccnc1	–	inconclusive: 31.6 µM [inhibitor, single point]
COc1ccc(OC)c(NC(=S)N2CCN(c3ccccn3)CC2)c1	inactive: 23.1%	–
Cc1noc(C)c1CSc1ccccc1C(=O)N(C)CC(=O)Nc1cccc(F)c1	–	inconclusive: 12.6 µM [inhibitor, single point]
COc1cc(/C=C/C(=O)Nc2ccc(C)cc2)cc(OC)c1OC	–	inconclusive: 0.794 µM [inhibitor, full curve]
CC(C)(C)[C@@H]1C=C(C(=O)O)[C@H](c2ccc(Cl)cc2)N1S(=O)(=O)c1ccccc1	–	inconclusive: 5.01 µM [inhibitor, single point]
COC(=O)c1c(C)cc(C)n2c1nc1ccccc12	–	inconclusive: 2.51 µM [inhibitor, single point]
CC1CCCCC12NC(=O)N(Cn1nnc3ccccc3c1=O)C2=O (configuration not stated)	inactive: 18.2%	–
Cc1ccc(S(=O)(=O)N2CCCOC2CNC(=O)C(=O)NCCC2=CCCCC2)cc1 (configuration not stated)	–	inconclusive: 12.6 µM [inhibitor, single point]
O=S(=O)(NN1CCOCC1)c1ccc(Br)cc1	inactive: -2.54%	–
CCN(Cc1ccccc1)C(=O)CSc1ncn[nH]1	inactive: 4.42%	–
Cc1ccc(C)c(NC(=O)c2cccc(Oc3ccc([N+](=O)[O-])cc3Cl)c2)c1	–	inconclusive: 10 µM [inhibitor, partial curve]
CC1CCCCC1N1CN=C(Nc2nc3ccccc3s2)NC1 (configuration not stated)	–	inconclusive: 8.91 µM [inhibitor, partial curve, poor fit]
CCOC(=O)c1sc(-c2ccc(C)cc2)c(C#N)c1C	–	inconclusive: 5.62 µM [inhibitor, single point]
Cc1c(C)c2ccc(O[C@@H]3O[C@H](CO)[C@H](O)[C@H](O)[C@H]3O)cc2oc1=O	inactive: 4.74%	–
Cc1ccc2c(CN(C)Cc3ccc(Cl)cc3)cc(=O)oc2c1	–	inconclusive: 31.6 µM [inhibitor, single point]
CCOc1ccc(C(C)=O)cc1COc1cccnc1[N+](=O)[O-]	–	inconclusive: 3.16 µM [inhibitor, full curve]
Cc1ccc(S(=O)(=O)N(CC(=O)NCc2ccco2)C2CCCCC2)cc1	–	active: 3.55 µM
